Out of some 48,000 compounds screened, about 1,200 (2.5%) were called active. Roughly 2% stayed inconclusive and do not appear here.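 Rule for the calls: active = activation of at least 60% and not above a set upper limit (about 1 call in 100 departs from these limits); inconclusive = activation of 40% to 60%, or above that upper limit; inactive = activation under 40%.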 Some of the results follow.
Biological target: Probable G-protein coupled receptor 32 (Homo sapiens) (UniProt O75388)
Test: qHTS for Agonists of Human Resolvin D1 Receptor DRV1; note: 0% is about no effect
Settings: CHO-K1 GPR32 beta-arrestin PathHunter luminescence, 90 min; at 76.9 µM; stronger effect = higher value; zero percent set by DMSO-only wells
Outline: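 CHO-K1 cells stably expressing ProLink-tagged GPR32 and Enzyme Activator-tagged beta-arrestin were seeded at 2,500 cells/well overnight, exposed to compounds for 90 min at 37 °C, then read by beta-Gal complementation chemiluminescence after 1 h detection reagent.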

Sequence of UniProt O75388 (O75388 whole entry, looked up): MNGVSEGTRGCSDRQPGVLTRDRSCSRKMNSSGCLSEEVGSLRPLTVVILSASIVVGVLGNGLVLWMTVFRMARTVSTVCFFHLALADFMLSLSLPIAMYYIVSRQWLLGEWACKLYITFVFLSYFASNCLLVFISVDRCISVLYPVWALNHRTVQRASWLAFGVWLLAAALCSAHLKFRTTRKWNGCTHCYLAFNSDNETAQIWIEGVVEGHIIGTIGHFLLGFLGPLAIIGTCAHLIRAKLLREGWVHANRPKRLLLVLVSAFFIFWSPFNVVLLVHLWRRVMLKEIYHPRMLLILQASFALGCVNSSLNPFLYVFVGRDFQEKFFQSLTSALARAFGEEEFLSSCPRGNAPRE

activation, inactive:
CCCn1c2ccccc2c2cnn(CC(=O)N(CC)c3cc(C)ccc3C)c(=O)c21 -17.2%
Cc1cccc(N2CCN(C(=O)c3cnn(-c4ccc(F)cc4F)c3C3CCN(C(=O)OC(C)(C)C)CC3)CC2)c1C -17.1%
CCOc1ccc(NC(=O)CC2C(=O)N(c3ccccc3)C(=O)N2C2CCCC2)cc1 (stereo unspecified) -0.675%
Cc1cc(=O)n(Cc2ccccc2)c2c1c(C)nn2-c1ccccc1 -4.3%
Cc1ccc2oc(=O)c3cnn(CC(=O)N4CCN(c5ccccc5F)CC4)c3c2c1 8.86%
Cc1cccc(N2CCN(C(=O)C3CCN(S(=O)(=O)c4c(C)noc4/C=C/c4ccccc4F)CC3)CC2C)c1 (stereo unspecified) -14.3%
Cc1ccc(NC(=O)Nc2cn(C)c(=O)c3ccccc23)c(Cl)c1 -54.1%
Cc1nc2c3ccccc3nc(NNC(=O)CCC(=O)N3CCN(c4cc(Cl)ccc4C)CC3)n2n1 -29.9%
COCc1cc(C)nc2sc(C(=O)Nc3ccc(C(C)=O)cc3)c(N)c12 33%
COc1ccc(OCC(=O)Nc2cccc(C(=O)OCc3cc(=O)n4nc(C)sc4n3)c2)cc1 -14.1%
COc1cccc(NC(=O)c2sc3nc(C)c(C(=O)Nc4ccc(C)cc4C)c(-c4ccco4)c3c2N)c1 -1.78%
CCc1cccc(NC(=O)CSc2nc3ccccc3nc2N2CCCCC2)c1 -10.1%
CNC(=O)CCCN1C(=O)CCn2nc(-c3cn(C)c4ccccc34)cc21 -1.21%
CCOC(=O)c1c(NC(=O)/C=C/c2ccc(OCC)cc2)sc(C(C)=O)c1C -3.42%
Cc1nn(-c2ccccc2)c2sc(C(=O)Nc3cccc(Cl)c3)cc12 -2.65%
COc1cc2nc(NCCc3ccccc3)n3nc(-c4cccnc4)nc3c2cc1OC -4.78%
COC(=O)c1ccc2c(=O)n(CCCCCC(=O)N3CCN(c4cc(C)ccc4C)CC3)c(=O)[nH]c2c1 -10.9%
Cc1ccc(C)c(N2CCN(C(=O)CCS(=O)(=O)c3cc(Br)cc4c3N(C(=O)C3CC3)CC4)CC2)c1 -18.4%
COc1ccc(CNC(=O)C(Cc2ccccc2)NS(=O)(=O)c2ccc3c(c2)CCN3C(C)=O)cc1 (stereo unspecified) 11.8%
COc1cc(NC(=O)CCc2c(C)nc3c(-c4ccc(F)cc4)c(C)nn3c2C)cc(OC)c1OC -11.6%
CCOc1ccc(NC(=O)CC2C(=O)N(c3ccc(OC)cc3)C(=O)N2C2CCCCC2)cc1 (stereo unspecified) -7.45%
CCCSc1ncc(Cl)c(C(=O)N2CCN(c3cccc(Cl)c3)CC2)n1 -24.2%
COC(=O)c1nnn(CC(=O)Nc2c(C)cccc2C)c1N 1.69%
Cc1cc2nc3c(=O)[nH]c(=O)nc-3n(C[C@H](O)[C@H](O)[C@H](O)CO)c2cc1C -5.93%
COc1cc(CN(C(=O)Nc2cccc(Cl)c2)c2ccccn2)cc(OC)c1OC -13.2%
CC(C)CCNC(=O)c1ccc2nc(CCc3ccccc3)oc2c1 -5.83%
CC(C)c1ccc(S(=O)(=O)N2CCN(CC(=O)Nc3ccccc3C(F)(F)F)CC2)cc1 -3.05%
CC(=O)c1cccc(NC(=O)CCn2nc(C)c(S(=O)(=O)N(C)C)c2C)c1 -10.2%
Cc1ccc(C(=O)NCC(c2cccs2)S(=O)(=O)c2ccccc2)cc1C (stereo unspecified) 19%
CC(C)Nc1nc2c(S(=O)(=O)c3cccc(Cl)c3)nnn2c2ccsc12 -9.49%
O=C(CCCCCN1CCN(c2ccccc2-c2ccccc2)CC1)NC1CCCc2ccccc21 (stereo unspecified) -36.3%
COC(=O)c1sc(N2C(=O)c3oc4ccc(C)cc4c(=O)c3C2c2ccc(O)c(OC)c2)nc1C (stereo unspecified) -2.72%
CCOC(=O)c1c(C)oc2nc(C)nc(NCCc3ccc(OC)c(OC)c3)c12 -7.39%
COc1ccc(CCNc2nc(SCc3ccccc3F)nc3ccccc23)cc1OC -20.4%
COC(=O)c1ccc(C(=O)OC)c(NC(=O)c2c(-c3ccccc3)noc2C)c1 -6.84%
CCc1ccc(NC(=O)C2CCCN2S(=O)(=O)c2ccc3nc(-c4ccccc4)[nH]c3c2)cc1 (stereo unspecified) 14.2%
CCOC(=O)Cc1c(C)nc2cc(-c3ccc(C(C)(C)C)cc3)nn2c1C -12%
Cc1csc2nc(COc3ccc(NC(=O)C(C)C)cc3)cc(=O)n12 0.526%
Cn1c(=O)n(CC(=O)O)c(=O)c2c1nc1n2CCCN1c1ccc(Cl)cc1 -5.04%
CCOC(=O)c1c(NC(=O)CSc2nc(-c3ccc(OC)cc3)cc(C(F)(F)F)n2)sc(C)c1C 10.2%
Cc1ccccc1NC(=O)CC1NCCNC1=O (stereo unspecified) -1.32%
COc1ccc(-n2ncc(C(=O)N3CCN(C4CCCCC4)CC3)c2C2CCN(C(=O)OC(C)(C)C)CC2)cc1 -16.7%
Cc1ccc(NC(=O)c2c3c(nc4ccccc24)C(=O)N(C2CCCCC2)C3)cc1F -2.45%
COc1ccc(C2CC(=O)c3cnc4c(-c5ccc(F)cc5)c(C)nn4c3C2)cc1OC (stereo unspecified) 26.8%
CCN(CC)S(=O)(=O)c1ccc2c(c1)c(=O)c(C(=O)NCCc1ccccc1)cn2C 1.5%
CCN1CCN(c2nc3c(S(=O)(=O)c4ccc(C)cc4)nnn3c3ccsc23)CC1 -5.57%
CCN(CC)S(=O)(=O)c1ccc2c(c1)N(CC(=O)NCCc1ccccc1)C(=O)CO2 -32%
CCC(Oc1ccccc1)C(=O)Nc1cc(-c2ccccc2F)nn1-c1ccccc1 (stereo unspecified) -7.82%
CCOc1ccc2nc(N3CCCC(C(=O)Nc4ccc(CC)cc4)C3)sc2c1 (stereo unspecified) -3.27%
CCc1ccc2oc(-c3cccc(NC(=O)COc4ccccc4Cl)c3)nc2c1 0.883%
CCN(CC)C(=O)c1ccc2c(c1)N(Cc1ccccc1F)C(=O)c1ccccc1S2=O (stereo unspecified) -25.8%
CCOc1ccc(NC(=O)CSc2nc3ccsc3c(=O)n2CC)cc1 -6.71%
COc1cc(NC(=O)C(CC(C)C)N2Cc3ccccc3C2=O)cc(OC)c1 (stereo unspecified) -11.6%
Cc1cccc(C(=O)n2nc(-c3cccnc3)nc2NCc2ccc(F)cc2)c1 -28.4%
Cc1c(C(=O)NCc2cccc(F)c2)oc2c1-c1[nH]ncc1CC2 -11.4%
CCCCOc1ccc(CNC(=O)c2cnc3sc(N4CCCCCC4)nn3c2=O)cc1 8.06%
CCCCNC(=O)CCn1nc(-c2ccc(Cl)cc2)c2ccccc2c1=O -3.91%
Cc1ccc(NC(=O)Cn2c(=O)nc(-c3ccccc3)c3ccccc32)cc1 -7.59%
Cn1c(=O)[nH]c(=O)c2c1nc(CN1CCN(c3ccccc3)CC1)n2Cc1c(F)cccc1Cl -10.7%
Cc1cccc(NC(=O)c2ccc3[nH]c(C)cc(=O)c3c2)c1 3.92%
COc1ccc(-c2cc(C)no2)cc1S(=O)(=O)N1CCCC(C)C1 (stereo unspecified) -12.8%
CC(C)CCNC(=O)c1cc(-c2ccc(Br)s2)nc2ccccc12 20.7%
CC(C)(C)c1ccc(C(=O)Nc2ccc(NC(=O)c3ccc(Cl)c(Cl)c3)cc2)cc1 -2.65%
CCC(=O)N1CCc2cc(S(=O)(=O)NC(Cc3ccccc3)C(=O)NCc3ccccc3OC)ccc21 (stereo unspecified) -11.8%
O=C(CSc1ncc2c(n1)-c1cc(Cl)ccc1N(Cc1ccccc1)S2(=O)=O)NCCc1ccccc1 6.23%
CCOC(=O)COc1cc(C)c(Cl)cc1C(=O)c1ccn2nc(-c3ccc(OC)cc3)cc2n1 -27.1%
COc1ccc(NC(=O)c2cccn2-c2nnc(N3CCCCC3)s2)c(OC)c1 -16.7%
CCc1nn(CC(=O)NCCc2ccc(OC)c(OC)c2)c(=O)c2cc3occc3n12 -3.24%
CCOc1ccc(NC(=O)C2=C(C)C(=O)OC23CCC(C)CC3)cc1 (stereo unspecified) -26.2%
COc1ccccc1NC(=O)c1ccc(-c2nc(COc3ccc(C)cc3)c(C)o2)cc1 -16.8%
Cc1ccc(NC(=O)Nc2c(C)n(C)n(-c3ccccc3)c2=O)c(Cl)c1 -7.58%
CCOC(=O)c1ccc(NC(=O)CSc2nc(-c3ccc(F)cc3)cc(C(F)(F)F)c2C#N)cc1 -5.32%
CCOC(=O)c1c(C)[nH]c(C)c1S(=O)(=O)N(C)CC(=O)NCc1ccc(C)cc1 22.9%
CCOc1cccc(CNC(=O)c2ccc(N3CCCC3)c(NC(=O)Nc3ccccc3CC)c2)c1 -16.7%
CC(C)c1ccc(NC(=O)Cc2ccc(NC(=O)N3CCCCc4ccccc43)cc2)cc1 -15.9%
COc1ccc(C2CC(=O)c3cc(-c4nc(-c5ccc(C)cc5)cs4)c(=O)[nH]c3C2)cc1 (stereo unspecified) -34.4%

activation, active:
CCc1ccccc1NC(=O)c1ccc(Cn2nc(N3CCN(c4ccccc4)CC3)ccc2=O)o1 63.3%
Cc1ccc(C2C=C(c3ccccc3)Nc3nc(NS(=O)(=O)c4ccc(C)cc4)nn32)cc1 (stereo unspecified) 93.9%
CCC(=O)N1CCc2cc(CNS(=O)(=O)c3ccc(C(C)C)cc3)ccc21 109%
CS(=O)(=O)Nc1ccc(-c2nc3ccccc3s2)cc1 100%
CN(CCCN1c2ccccc2CCc2ccccc21)CC(=O)c1ccc(Cl)cc1 109%

From PubChem BioAssay AID1346428 (National Center for Advancing Translational Sciences (NCATS), 2018)
